Measured values as given in patent US20240245805A1 (Orna Therapeutics, Inc., priority 2020, published 2024).

Tested on: HEK293 cells
Experiment: GLuc luminescence by IRES, HEK293 cells
Conditions: HEK293, 100 ng circularization reaction
Experimental: A trend of larger IRES producing greater luminescence at 24 hours was observed. Shorter total sequence length tends to increase circularization efficiency, so selecting a high expression and relatively short IRES may result in an improved construct.

B1: Crohivirus B IRES: selected IRES sequence, "Crohivirus B (CrVB) IRES", truncated and "operably linked to a Gaussia luciferase coding sequence" (nucleic acid)
DNA: GTATAAGAGACAGGTGTTTGCCTTGTCTTCGGACTGGCATCTTGGGACCAACCCCCCTTTTCCCCAGCCATGGGTTAAATGGCAATAAAGGACGTAACAACTTTGTAACCATTAAGCTTTGTAATTTTGTAACCACTAAGCTTTGTGCACATAATGTAACCATCAAGCTTGTTAGTCCCAGCAGGAGGTTTGCATGCTTGTAGCCGAAATGGGGCTCGACCCCCCATAGTAGGATACTTGATTTTGCATTCCATTGTGGACCTGCAAACTCTACACATAGAGGCTTTGTCTTGCATCTAAACACCTGAGTACAGTGTGTACCTAGACCCTATAGTACGGGAGGACCGTTTGTTTCCTCAATAACCCTACATAATAGGCTAGGTGGGCATGCCCAATTTGCAAGATCCCAGACTGGGGGTCGGTCTGGGCAGGGTTAGATCCCTGTTAGCTACTGCCTGATAGGGTGGTGCTCAACCATGTGTAGTTTAAATTGAGCTGTTCATATACC
modifications: Crohivirus B
For B1, the “luminescence at 24 hours” value was “produced the highest luminescence”.
